According to PubChem BioAssay AID686978 (National Center for Advancing Translational Sciences (NCATS), 2013):
Screen size: about 420,000 compounds; about 64,000 (15%) were called active. The shares of active, inactive and inconclusive entries below differ from those in the screen. The call rests on the fitted dose curve; in most records, active means well fitted inhibition curve with a large enough effect; inconclusive means small, poorly fitted or top-dose-only effect; inactive means flat fitted curve, though single readings scatter. No potency is given beside an inconclusive call; the fits are too rough.

Experiment: qHTS for Inhibitors of human tyrosyl-DNA phosphodiesterase 1 (TDP1): qHTS in cells in absence of CPT; further: nearly all actives have a fitted effect of over 55% in size
Conditions: DT40 Tdp1-/- hTDP1 cells, no CPT, ATP luminescence, 48 h; activity change, negative = growth inhibition: at 46.2 µM (top of the series) unless noted
Procedure, shortened: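 No-CPT arm: Tdp1-/-;hTDP1 DT40 cells (400/well) plus compounds, incubated ≥48 hr at 37 °C. Readout CellTiter-Glo luminescence.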
On the % scale 0 is the no-effect control and ±100 the full control effect; potency means the concentration at half of the fitted maximal effect; tags describe the fitted curve by direction and shape.

| SMILES | Potency | activity change, negative = growth inhibition |
| --- | --- | --- |
| COc1ccc(NC(=O)COc2ccc(C(=O)OCC(=O)N(C(C)C)C(C)C)cc2OC)cc1 | inconclusive [inhibitor, partial curve] |  |
| Cc1ccc(NN=C2C(=O)OC(C)(C)OC2=O)c(C)c1 |  | inconclusive: -30.2% [inhibitor] |
| O=[N+]([O-])c1c(NCCCO)cc(Sc2nc3ccccc3s2)c2nonc12 | active: 0.794 µM |  |
| CCOc1ccc(/C=N/NC(=O)C(C)Sc2ccccn2)cc1OCC (configuration not stated) | inconclusive [inhibitor, partial curve] |  |
| CCc1ccccc1N1C(=O)N(Cc2cc(=O)n3ccccc3n2)c2ccccc2S1(=O)=O | active: 18.4 µM |  |
| CCOc1ccc2oc(C(=O)N(C)CC(=O)Nc3ccc(OCC)c(OCC)c3)c(C)c2c1 | active: 18.4 µM |  |
| Cc1ccccc1C(=O)NC(CC(C)C)C(=O)N1CCN(c2ccccc2)CC1 (configuration not stated) | inconclusive [inhibitor, single point] |  |
| O=C(NCc1ccccc1)c1c2c(nc3ccccc13)C(=O)N(C1CCCCC1)C2 | active: 18.4 µM |  |
| CCc1c(C)nc(SCC(=O)N2CCN(c3ccccc3)CC2)[nH]c1=O | inconclusive [inhibitor, single point] |  |
| Cn1nc(-c2ccc(F)cc2)nc2c(=O)n(C)c(=O)nc1-2 | active: 0.631 µM |  |
| CC(OC(=O)c1ccc(Cl)c(S(=O)(=O)Nc2ccc(F)cc2)c1)C(=O)NC(N)=O (configuration not stated) |  | inactive: 12.1% |
| Cc1ccc2c(c1)N(C(=O)c1ccc(F)cc1)C(C)(C)CC2(C)c1ccccc1 (configuration not stated) | active: 20.6 µM |  |
| Cc1ccc(-c2cc(C(=O)OCC(=O)N(C)C3CCS(=O)(=O)C3)c3ccccc3n2)o1 (configuration not stated) | inconclusive [inhibitor, partial curve] |  |
| CC(=O)Nc1ccc(NC(=O)c2cccc(S(=O)(=O)N(C)C3CCCCC3)c2)cc1 | inconclusive [inhibitor, single point] |  |
| C=C1C(=O)[C@]23C[C@H]1CCC2[C@]1(C)C(=O)CC[C@@](C)(C(=O)O)C1C[C@@H]3O (some centres not stated) | active: 3.66 µM |  |
| Cc1ccc(NC(=S)N2CCN(Cc3ccccc3)CC2)c(C)c1 | inconclusive [inhibitor, single point] |  |
| O=C(NCc1ccccc1Cl)c1cc([N+](=O)[O-])ccc1Cl |  | inactive: -0.178% |
| CC1(C(=O)OCC(=O)Nc2ccc3ccccc3c2)CC1(Cl)Cl (configuration not stated) | inconclusive [inhibitor, full curve, poor fit] |  |
| Cc1csc(NC(=O)C2CCCN(S(=O)(=O)c3ccc(Br)s3)C2)n1 (configuration not stated) | active: 18.4 µM |  |
| Cc1ccc(C)c(N2CCN(C(=O)NCc3noc4ccccc34)CC2)c1 | inconclusive [inhibitor, single point] |  |
| CC1(C)OC(=O)C2(Cc3ccccc3N3CCC(c4ccccc4)CC32)C(=O)O1 (configuration not stated) |  | inactive: 5.92% |
| CCc1nn2c(N(C)CCO)cc(C)nc2c1-c1ccc(F)cc1 | inconclusive [inhibitor, single point] |  |
| NS(=O)(=O)c1ccc(NS(=O)(=O)c2ccc(NC(=O)C3CC3)cc2)cc1 |  | inactive: 23.2% |
| CC(C)c1c(C(=O)NCc2cccnc2)cnn1-c1nccc(-c2cccs2)n1 | inconclusive [inhibitor, partial curve] |  |

| SMILES | Potency | activity change, negative = growth inhibition |
| --- | --- | --- |
| Cc1ccnc(SC2CC(=O)N(c3ccc(Br)cc3)C2=O)n1 (configuration not stated) | inconclusive [inhibitor, single point] |  |
| O=[N+]([O-])c1cccc(-c2nnc3c4ccccc4c4ccccc4n23)c1 | inconclusive [inhibitor, single point] |  |
| Oc1ccccc1-c1cc(-c2ccc3c(c2)OCCO3)n[nH]1 | inconclusive [inhibitor, single point] |  |
| CCCC1=C(C(=O)OCC)C(c2ccc(F)cc2)n2ncnc2N1 (configuration not stated) | inconclusive [inhibitor, single point] |  |
| CC(C)COC(=O)NCC12C=CC(O1)C1C(=O)N(c3ccc(Cl)cc3)C(=O)C12 (configuration not stated) | active: 18.4 µM |  |
| CN1CCN(/N=C/c2ccc(-c3ccccc3)cc2)CC1 | inconclusive [inhibitor, single point] |  |
| CC(=O)c1ccc(NC(=O)CN2CCCC2)cc1 | inconclusive [inhibitor, full curve, poor fit] |  |
| Cc1ccc2nc(Nc3cccc(C(F)(F)F)c3)c3nnnn3c2c1 | inconclusive [inhibitor, single point] |  |
| Cc1cc2oc(C(=O)Nc3sc4c(c3C(=O)NCC3CCCO3)CCCC4)cc(=O)c2cc1C (configuration not stated) |  | inactive: -3.11% |
| COc1cccc(NC(=O)CN(C)C(=O)Cc2ccc3c(c2)CCC3)c1 | inconclusive [inhibitor, single point] |  |
| CC(=O)Nc1ccc(S(=O)(=O)NCC(=O)OCC(=O)NNC(=O)c2ccccc2)cc1 |  | inactive: 1.69% |
| COc1cccc(CN2CC(C(=O)NCc3ccc(C)c(F)c3)CCC2=O)c1 (configuration not stated) |  | inactive: -11.5% |
| COc1ccc(-n2c(SCC(=O)N3CCCCC3)nc3ccccc3c2=O)cc1 | inconclusive [inhibitor, single point] |  |
| Cn1c(=O)c2c(-c3ccc(Cl)cc3)ccnc2n(C)c1=O | inconclusive [inhibitor, full curve, poor fit] |  |
| CCCSCCCNC(=O)c1ccccc1NC(=O)C1=CSCCO1 | inconclusive [inhibitor, single point] |  |
| O=[N+]([O-])c1ccc(N/N=C2/CCCCC2c2ccccn2)c([N+](=O)[O-])c1 (configuration not stated) | inconclusive [inhibitor, single point] |  |
| Cc1c(C(=O)NCC2CC2)sc(=O)n1Cc1cccc(F)c1 |  | inactive: -6% |
| CCOC(=O)c1c[nH]c2c3c(ccc2c1=O)CCCC3 | inconclusive [inhibitor, single point] |  |
| N#C/C(=C\c1cccn1S(=O)(=O)c1cccc([N+](=O)[O-])c1)S(=O)(=O)c1ccc(F)cc1 | inconclusive [inhibitor, single point] |  |
| COc1ccc(CN(CCC(c2ccccc2)c2ccco2)C(=O)c2ccco2)cc1 (configuration not stated) | inconclusive [inhibitor, single point] |  |
| Cc1cc2ncn(-c3ncnc4scc(-c5ccccc5)c34)c2cc1C | active: 18.4 µM |  |
| Cc1ccccc1NC(=O)CSc1nc(N)c(C#N)cc1C#N |  | inactive: -5.39% |
| CCCCN(C)C(=O)c1ccc2c(c1)N(CC)C(=O)c1ccccc1S2(=O)=O | inconclusive [inhibitor, partial curve] |  |
| CCCCS/C(=C(/C#N)C(N)=O)c1cc2c([nH]1)CCCC2 | inconclusive [inhibitor, single point] |  |

| SMILES | Potency | activity change, negative = growth inhibition |
| --- | --- | --- |
| CCOC(=O)C1(Cc2cccc(F)c2)CCN(C(=O)Cn2cnnn2)CC1 |  | inactive: -20.7% |
| CCCCN(CC)CCNC(=O)CN1C(=O)COc2ccc(S(=O)(=O)N3CCOCC3)cc21 |  | inactive: 9.8% |
| COc1ccc(NC(=O)NC2CCCCC2C)cc1 (configuration not stated) |  | inactive: 0.259% |
| CCCN1CCc2c(sc(NC(=S)NC(=O)c3ccccc3)c2C#N)C1 | inconclusive [inhibitor, partial curve, poor fit] |  |
| CCOC(=O)N1CCN(C(=O)c2ccc3c(=O)n(CCc4ccccc4)c(=O)[nH]c3c2)CC1 |  | inactive: -26.5% |
| CCC(=O)Nc1ccc(NC(=O)c2ccccn2)cn1 | inconclusive [inhibitor, partial curve] |  |
| O=S(=O)(NCC(c1ccco1)N1CCN(c2ccc(F)cc2)CC1)c1cc(F)ccc1F (configuration not stated) | active: 16.4 µM |  |
| CCCCCCCCC(NC(=O)c1ccc(C#N)cc1)C(=O)NCCC (configuration not stated) | inconclusive [inhibitor, single point] |  |
| Nc1ccc(S(=O)(=O)NNC(=O)C(=O)NNc2ccccc2)cc1 |  | inactive: -11.5% |
| O=C(Nc1cnc2ccccc2c1)C1COc2ccccc2O1 (configuration not stated) | inconclusive [inhibitor, single point] |  |
| O=C(CN(Cc1ccco1)C(=O)c1cccc(Cl)c1)Nc1c(Cl)cc(Cl)cc1Cl | inconclusive [inhibitor, single point] |  |
| Cc1nn(CC(O)CN2c3ccccc3Sc3ccccc32)c(C)c1Br (configuration not stated) | inconclusive [inhibitor, single point] |  |
| Cc1cc(Oc2ccc(=O)n(C)n2)nc(SCCOc2ccccc2)n1 |  | inconclusive: -33% [inhibitor] |
| Cc1ccc2oc(=O)cc(CN3CC(C)OC(C)C3)c2c1 (configuration not stated) |  | inactive: -5.82% |
| CC1CCCN1c1ccnc2cc(Cl)ccc12 (configuration not stated) | active: 16.4 µM |  |
| Cc1ccc(N(CC(=O)Nc2ccc(F)c(Cl)c2)S(=O)(=O)c2c(C)noc2C)cc1 |  | inconclusive: -34.8% [inhibitor] |
| COc1ccc(/C(N)=N/OC(=O)Cc2cccs2)cc1OC |  | inconclusive: -32.5% [inhibitor] |
| CCCC(C)(C)C(=O)N1CCC1(C)C(=O)Nc1ccc(OC)c(OC)c1 (configuration not stated) | inconclusive [inhibitor, single point] |  |
| O=C(Cc1cccs1)Nc1ccc(F)c(F)c1 |  | inactive: -5.17% |
| COc1ccc(C(=O)CSC#N)cc1OC | active: 2.91 µM |  |
| Cc1ccc(-c2nnn(CC(=O)N(CCN3CCOCC3)C(C(=O)NC3CCCC3)c3ccncc3)n2)o1 (configuration not stated) |  | inactive: 6.82% |
| CCNC(=S)Nc1ccc(Cl)c([N+](=O)[O-])c1 | inconclusive [inhibitor, partial curve] |  |
| O=C(Nc1ccccc1)c1ccc(Cl)c(S(=O)(=O)Nc2ccccc2)c1 | inconclusive [inhibitor, single point] |  |
| COc1ccc(N2CCN(c3ncnc4c3nnn4Cc3ccccc3Cl)CC2)cc1 | inconclusive [inhibitor, single point] |  |
